# Measurements published in ChEMBL document CHEMBL1961873, “Compounds: GSK PKIS; Assays: Nanosyn kinase panel” (2012).
# For part of these data: Most of the strong results are listed elsewhere, so they are rarer here than in the full data. This is a selection; strong and weak results do not stand in their true shares.
# Tests used:
# [1] = test system: Mast/stem cell growth factor receptor Kit (Homo sapiens), P10721 [D816V]; details: at 0.1 µM
# [2] = test system: Mast/stem cell growth factor receptor Kit (Homo sapiens), P10721 [D816V]; details: at 1 µM
# [3] = test system: Mast/stem cell growth factor receptor Kit (Homo sapiens), P10721 [T670I]; details: at 0.1 µM
# [4] = test system: Mast/stem cell growth factor receptor Kit (Homo sapiens), P10721 [T670I]; details: at 1 µM
# [5] = test system: Mast/stem cell growth factor receptor Kit (Homo sapiens), P10721 [V560G]; details: at 0.1 µM
# [6] = test system: Mast/stem cell growth factor receptor Kit (Homo sapiens), P10721 [V560G]; details: at 1 µM
# [7] = target: Tyrosine-protein kinase Lck (Homo sapiens) (UniProt P06239); details: at 0.1 µM
# UniProt P06239, sequence (P06239 whole entry, looked up): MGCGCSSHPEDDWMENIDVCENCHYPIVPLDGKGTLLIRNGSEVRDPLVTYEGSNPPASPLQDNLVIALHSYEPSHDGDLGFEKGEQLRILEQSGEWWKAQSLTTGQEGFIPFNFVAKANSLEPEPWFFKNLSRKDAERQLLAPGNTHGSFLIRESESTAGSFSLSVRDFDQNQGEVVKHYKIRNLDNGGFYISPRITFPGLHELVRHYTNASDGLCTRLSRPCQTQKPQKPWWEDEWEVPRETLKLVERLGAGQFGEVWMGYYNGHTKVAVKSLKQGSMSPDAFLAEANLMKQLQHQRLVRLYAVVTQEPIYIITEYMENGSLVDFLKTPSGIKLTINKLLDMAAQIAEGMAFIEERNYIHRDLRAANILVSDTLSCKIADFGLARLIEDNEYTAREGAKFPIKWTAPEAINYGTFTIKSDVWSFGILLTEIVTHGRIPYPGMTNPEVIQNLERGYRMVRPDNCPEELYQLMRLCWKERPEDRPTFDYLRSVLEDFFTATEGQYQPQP
# [8] = target: Tyrosine-protein kinase Lck (Homo sapiens) (UniProt P06239); details: at 1 µM
# [9] = target: Leukocyte tyrosine kinase receptor (Homo sapiens) (UniProt P29376); details: at 0.1 µM
# UniProt P29376, sequence (P29376 whole entry): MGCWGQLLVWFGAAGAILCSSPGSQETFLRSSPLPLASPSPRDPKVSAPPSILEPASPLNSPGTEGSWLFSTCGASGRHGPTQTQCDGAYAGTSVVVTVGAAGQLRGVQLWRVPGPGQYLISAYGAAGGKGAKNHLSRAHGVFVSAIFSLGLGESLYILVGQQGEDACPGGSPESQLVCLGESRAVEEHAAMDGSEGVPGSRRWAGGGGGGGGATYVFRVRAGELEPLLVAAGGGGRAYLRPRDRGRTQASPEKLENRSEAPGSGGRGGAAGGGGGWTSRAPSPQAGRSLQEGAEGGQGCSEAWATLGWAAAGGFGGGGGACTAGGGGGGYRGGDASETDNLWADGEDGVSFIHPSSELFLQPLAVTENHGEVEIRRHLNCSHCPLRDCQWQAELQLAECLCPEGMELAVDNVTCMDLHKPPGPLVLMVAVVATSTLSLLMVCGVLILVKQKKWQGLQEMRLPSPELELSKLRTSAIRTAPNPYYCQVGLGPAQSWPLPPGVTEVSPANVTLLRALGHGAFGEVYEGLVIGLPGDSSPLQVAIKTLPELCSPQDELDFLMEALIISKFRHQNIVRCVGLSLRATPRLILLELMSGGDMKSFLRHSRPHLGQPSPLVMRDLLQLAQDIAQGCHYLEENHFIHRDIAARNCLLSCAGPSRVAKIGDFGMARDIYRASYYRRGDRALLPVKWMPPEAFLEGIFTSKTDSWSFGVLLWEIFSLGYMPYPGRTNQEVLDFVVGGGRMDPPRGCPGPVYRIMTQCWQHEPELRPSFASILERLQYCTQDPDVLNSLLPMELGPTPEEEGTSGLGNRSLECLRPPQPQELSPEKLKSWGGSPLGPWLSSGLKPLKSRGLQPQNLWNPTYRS
# [10] = target: Leukocyte tyrosine kinase receptor (Homo sapiens) (UniProt P29376); details: at 1 µM
# [11] = target: Tyrosine-protein kinase Lyn (Homo sapiens) (UniProt P07948); details: at 0.1 µM
# UniProt P07948, sequence (P07948 whole entry, looked up): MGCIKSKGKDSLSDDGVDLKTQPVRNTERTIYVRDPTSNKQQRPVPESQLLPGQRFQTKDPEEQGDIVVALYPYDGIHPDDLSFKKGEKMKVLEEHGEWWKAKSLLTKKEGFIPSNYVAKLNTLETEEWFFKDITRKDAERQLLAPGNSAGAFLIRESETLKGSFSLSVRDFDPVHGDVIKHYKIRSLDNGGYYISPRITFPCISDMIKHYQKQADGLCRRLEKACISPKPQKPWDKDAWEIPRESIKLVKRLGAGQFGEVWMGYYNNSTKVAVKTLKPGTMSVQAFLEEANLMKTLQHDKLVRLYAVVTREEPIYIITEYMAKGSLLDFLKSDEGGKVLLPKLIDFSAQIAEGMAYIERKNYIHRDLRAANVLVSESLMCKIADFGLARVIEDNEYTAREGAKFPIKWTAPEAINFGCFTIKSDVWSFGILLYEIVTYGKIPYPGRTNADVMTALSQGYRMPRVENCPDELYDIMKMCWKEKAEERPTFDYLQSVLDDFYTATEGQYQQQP
# [12] = target: Tyrosine-protein kinase Lyn (Homo sapiens) (UniProt P07948); details: at 1 µM
# [13] = target: Tyrosine-protein kinase Lyn (Homo sapiens) (UniProt P07948); details: at 0.1 µM; remark: listed apart in the source
# [14] = target: Tyrosine-protein kinase Lyn (Homo sapiens) (UniProt P07948); details: at 1 µM; remark: listed apart in the source
# [15] = target: T1, Tyrosine-protein kinase Mer (Homo sapiens) (UniProt Q12866); details: at 0.1 µM
# T1 sequence (whole entry): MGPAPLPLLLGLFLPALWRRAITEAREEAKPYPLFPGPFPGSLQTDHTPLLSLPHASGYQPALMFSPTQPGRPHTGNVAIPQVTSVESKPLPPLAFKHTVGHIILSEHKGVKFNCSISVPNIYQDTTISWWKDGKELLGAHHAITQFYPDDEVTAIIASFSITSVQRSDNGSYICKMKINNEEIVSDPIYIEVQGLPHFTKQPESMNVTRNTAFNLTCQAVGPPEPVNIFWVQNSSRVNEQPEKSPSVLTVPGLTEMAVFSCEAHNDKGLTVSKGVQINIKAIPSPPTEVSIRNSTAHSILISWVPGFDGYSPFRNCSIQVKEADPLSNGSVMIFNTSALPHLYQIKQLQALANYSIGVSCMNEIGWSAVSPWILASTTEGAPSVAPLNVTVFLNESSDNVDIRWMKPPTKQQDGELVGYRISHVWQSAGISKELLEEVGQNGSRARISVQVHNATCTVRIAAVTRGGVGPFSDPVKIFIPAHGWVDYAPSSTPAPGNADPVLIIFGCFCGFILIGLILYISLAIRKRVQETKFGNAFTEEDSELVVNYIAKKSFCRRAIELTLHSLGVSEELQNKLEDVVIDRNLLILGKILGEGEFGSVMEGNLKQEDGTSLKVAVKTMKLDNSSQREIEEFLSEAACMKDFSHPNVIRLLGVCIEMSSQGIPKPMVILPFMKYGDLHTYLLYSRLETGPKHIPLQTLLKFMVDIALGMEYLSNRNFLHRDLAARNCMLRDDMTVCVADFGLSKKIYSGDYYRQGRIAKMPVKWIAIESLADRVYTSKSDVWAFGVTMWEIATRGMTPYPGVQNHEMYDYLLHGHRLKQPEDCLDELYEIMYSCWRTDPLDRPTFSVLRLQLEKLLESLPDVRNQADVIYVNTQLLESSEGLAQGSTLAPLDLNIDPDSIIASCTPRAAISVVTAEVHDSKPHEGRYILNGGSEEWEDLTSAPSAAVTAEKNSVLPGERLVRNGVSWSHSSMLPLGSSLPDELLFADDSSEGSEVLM
# [16] = target: T1, Tyrosine-protein kinase Mer (Homo sapiens); details: at 1 µM
# [17] = target: Hepatocyte growth factor receptor (Homo sapiens) (UniProt P08581); details: at 0.1 µM
# UniProt P08581, sequence (P08581 whole entry): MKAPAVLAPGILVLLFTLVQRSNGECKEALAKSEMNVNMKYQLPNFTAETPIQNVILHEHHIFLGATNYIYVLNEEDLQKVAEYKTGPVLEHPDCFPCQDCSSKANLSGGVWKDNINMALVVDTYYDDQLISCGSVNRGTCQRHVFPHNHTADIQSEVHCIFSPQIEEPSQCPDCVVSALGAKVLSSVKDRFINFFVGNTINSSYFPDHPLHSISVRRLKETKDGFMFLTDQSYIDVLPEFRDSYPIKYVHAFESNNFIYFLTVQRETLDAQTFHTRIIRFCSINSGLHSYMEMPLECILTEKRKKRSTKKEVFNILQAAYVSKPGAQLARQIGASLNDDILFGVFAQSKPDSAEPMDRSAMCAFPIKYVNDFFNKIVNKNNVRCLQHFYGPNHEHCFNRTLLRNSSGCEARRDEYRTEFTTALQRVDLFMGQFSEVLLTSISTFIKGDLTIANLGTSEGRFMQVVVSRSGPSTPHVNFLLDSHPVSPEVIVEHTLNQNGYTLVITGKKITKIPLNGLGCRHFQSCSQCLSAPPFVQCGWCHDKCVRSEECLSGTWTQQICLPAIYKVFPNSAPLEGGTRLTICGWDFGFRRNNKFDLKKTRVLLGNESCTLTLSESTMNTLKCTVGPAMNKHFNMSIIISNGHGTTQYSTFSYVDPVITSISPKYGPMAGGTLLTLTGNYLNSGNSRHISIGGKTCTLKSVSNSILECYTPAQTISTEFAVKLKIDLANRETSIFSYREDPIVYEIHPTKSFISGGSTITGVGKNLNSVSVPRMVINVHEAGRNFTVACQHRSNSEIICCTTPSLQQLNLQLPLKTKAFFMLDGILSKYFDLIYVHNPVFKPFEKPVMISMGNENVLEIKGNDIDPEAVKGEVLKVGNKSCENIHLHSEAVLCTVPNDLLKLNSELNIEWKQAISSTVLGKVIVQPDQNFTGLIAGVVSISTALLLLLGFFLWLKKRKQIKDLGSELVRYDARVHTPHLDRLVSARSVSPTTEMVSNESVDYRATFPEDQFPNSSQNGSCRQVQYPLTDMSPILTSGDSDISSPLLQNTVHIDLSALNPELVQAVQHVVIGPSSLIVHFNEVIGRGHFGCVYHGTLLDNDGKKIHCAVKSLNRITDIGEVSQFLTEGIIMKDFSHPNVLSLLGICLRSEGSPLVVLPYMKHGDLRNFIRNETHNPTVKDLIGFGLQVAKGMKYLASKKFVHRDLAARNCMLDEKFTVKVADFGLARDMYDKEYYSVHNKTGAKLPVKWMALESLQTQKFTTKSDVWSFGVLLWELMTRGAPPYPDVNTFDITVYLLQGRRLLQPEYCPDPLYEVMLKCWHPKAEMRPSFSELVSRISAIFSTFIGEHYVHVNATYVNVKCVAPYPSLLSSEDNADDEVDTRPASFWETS
# [18] = target: Hepatocyte growth factor receptor (Homo sapiens) (UniProt P08581); details: at 1 µM
# [19] = target: T2, Muscle, skeletal receptor tyrosine-protein kinase (Homo sapiens) (UniProt O15146); details: at 0.1 µM;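 further: values are mean inhibition of MuSK from the GSK PKIS kinase screening panel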
# T2 sequence (whole entry): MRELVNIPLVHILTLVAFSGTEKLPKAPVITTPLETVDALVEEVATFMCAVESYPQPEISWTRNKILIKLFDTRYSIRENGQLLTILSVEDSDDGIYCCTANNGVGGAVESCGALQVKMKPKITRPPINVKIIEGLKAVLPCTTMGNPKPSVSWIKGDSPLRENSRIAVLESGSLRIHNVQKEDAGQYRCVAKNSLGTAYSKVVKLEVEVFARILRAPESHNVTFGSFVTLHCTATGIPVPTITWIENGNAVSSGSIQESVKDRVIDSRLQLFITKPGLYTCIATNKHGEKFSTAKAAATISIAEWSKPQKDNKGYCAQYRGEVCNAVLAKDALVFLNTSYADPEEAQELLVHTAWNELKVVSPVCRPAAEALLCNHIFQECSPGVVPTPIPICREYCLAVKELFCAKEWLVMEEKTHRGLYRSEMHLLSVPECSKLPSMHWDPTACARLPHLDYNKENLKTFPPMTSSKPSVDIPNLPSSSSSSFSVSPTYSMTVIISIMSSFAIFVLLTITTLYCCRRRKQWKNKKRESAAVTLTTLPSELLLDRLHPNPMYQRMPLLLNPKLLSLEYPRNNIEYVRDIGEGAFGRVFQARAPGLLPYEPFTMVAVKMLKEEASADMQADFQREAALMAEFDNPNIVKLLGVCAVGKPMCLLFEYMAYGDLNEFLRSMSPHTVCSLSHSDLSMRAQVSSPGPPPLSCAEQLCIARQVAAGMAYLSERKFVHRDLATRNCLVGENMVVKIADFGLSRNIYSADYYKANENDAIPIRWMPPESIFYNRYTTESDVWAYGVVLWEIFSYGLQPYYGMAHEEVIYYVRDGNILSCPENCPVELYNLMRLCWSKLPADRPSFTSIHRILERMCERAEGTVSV
# [20] = target: Mast/stem cell growth factor receptor Kit (Homo sapiens) (UniProt P10721); details: at 1 µM
# UniProt P10721, sequence (P10721 whole entry): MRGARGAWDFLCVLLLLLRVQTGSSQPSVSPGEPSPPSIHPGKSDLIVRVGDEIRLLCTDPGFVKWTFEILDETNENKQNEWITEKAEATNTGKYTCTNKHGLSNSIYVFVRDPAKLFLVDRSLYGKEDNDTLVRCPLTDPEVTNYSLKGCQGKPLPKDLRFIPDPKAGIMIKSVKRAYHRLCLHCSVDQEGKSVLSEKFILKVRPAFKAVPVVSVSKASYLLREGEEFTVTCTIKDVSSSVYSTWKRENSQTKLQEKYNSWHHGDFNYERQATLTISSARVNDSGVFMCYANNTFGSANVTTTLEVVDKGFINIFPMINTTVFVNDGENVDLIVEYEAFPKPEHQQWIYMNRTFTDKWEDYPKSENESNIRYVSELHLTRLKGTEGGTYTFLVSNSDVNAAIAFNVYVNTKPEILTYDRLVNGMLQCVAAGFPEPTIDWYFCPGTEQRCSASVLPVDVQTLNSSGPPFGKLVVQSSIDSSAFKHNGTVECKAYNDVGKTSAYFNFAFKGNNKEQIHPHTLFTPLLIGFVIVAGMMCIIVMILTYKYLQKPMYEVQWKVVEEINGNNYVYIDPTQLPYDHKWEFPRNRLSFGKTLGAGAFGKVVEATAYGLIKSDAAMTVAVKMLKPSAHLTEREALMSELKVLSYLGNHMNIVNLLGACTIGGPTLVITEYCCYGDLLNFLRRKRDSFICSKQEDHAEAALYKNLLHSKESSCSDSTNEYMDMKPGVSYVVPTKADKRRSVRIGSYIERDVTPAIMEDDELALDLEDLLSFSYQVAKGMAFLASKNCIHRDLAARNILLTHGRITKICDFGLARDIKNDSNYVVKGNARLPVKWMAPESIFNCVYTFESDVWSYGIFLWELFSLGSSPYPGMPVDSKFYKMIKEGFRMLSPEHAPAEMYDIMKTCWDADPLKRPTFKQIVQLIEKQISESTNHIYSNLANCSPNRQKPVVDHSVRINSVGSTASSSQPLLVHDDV
Compound,inhibition [1],inhibition [2],inhibition [3],inhibition [4],inhibition [5],inhibition [6],inhibition [7],inhibition [8],inhibition [9],inhibition [10],inhibition [11],inhibition [12],inhibition [13],inhibition [14],inhibition [15],inhibition [16],inhibition [17],inhibition [18],inhibition [19],inhibition [20]
CC(C)(C)c1ccc(Oc2nccc(-c3c(-c4ccc(F)cc4)ncn3C3CCNCC3)n2)cc1,0.68%,5.75%,0.89%,4.17%,1.09%,0.05%,1.62%,4.11%,4.61%,4.25%,4.8%,7.06%,2.74%,4.08%,1.05%,4.15%,2.88%,7.63%,2.51%,
COc1ccccc1C1=C(Nc2ccccc2)C(=O)NC1=O,6.65%,1.47%,3.18%,3.39%,0.2%,5.79%,3.08%,22.8%,3.08%,3.44%,5.41%,20.9%,3.14%,17.2%,0.73%,1.51%,3.31%,7.23%,1.54%,4.82%
O=C1NC(=O)C(c2ccccc2)=C1Nc1ccccc1,6.41%,8.4%,4.94%,8.44%,-0.46%,2.76%,1.49%,5.45%,6.85%,8.17%,5.54%,8.24%,7.53%,5.49%,4.87%,2.47%,2.55%,7.96%,2.18%,14.9%
Fc1ccc(Oc2nccc(-c3c(-c4ccc(F)cc4)ncn3C3CCNCC3)n2)cc1,3.81%,5.89%,0.95%,1.38%,-1.79%,1.69%,-0.24%,-3.53%,5.08%,2.49%,3.83%,3.17%,1.4%,2.26%,3.57%,,7.6%,2.64%,1.5%,6.28%
Fc1ccc(-c2ncn(C3CCNCC3)c2-c2ccnc(Oc3cccc(C(F)(F)F)c3)n2)cc1,3.83%,4.58%,4.19%,5.18%,-4.5%,-3.93%,4.54%,7.84%,4.75%,4.42%,5.95%,6.82%,4.14%,4.77%,-0.02%,-0.63%,6.83%,6.95%,1.84%,-6.01%
O=C1NC(=O)C(c2ccccc2Cl)=C1Nc1cc(Cl)c(O)c(Cl)c1,2.2%,5.52%,2.33%,11.9%,1.29%,8.54%,2.12%,0.12%,2.95%,4.91%,4.92%,5.35%,3.29%,4.88%,0.89%,4.28%,1.4%,7.88%,1.37%,11.8%
NC(=O)CCc1ccccc1Oc1nccc(-c2c(-c3ccc(F)cc3)ncn2C2CCNCC2)n1,0.72%,0.53%,-2.87%,-0.4%,-0.71%,2.85%,-0.74%,0.88%,1.49%,0.47%,0.19%,-0.01%,-0.13%,1.03%,-1.03%,0.4%,4.01%,-0.26%,-0.09%,-3.37%
